Hit rate of the full screen: of about 48,000 compounds, about 450 (0.94%) were called active. Not shown: some 19% with an inconclusive outcome. The call rests on the fitted dose curve; in most records, active means well fitted inhibition curve with a large enough effect; inconclusive means small, poorly fitted or top-dose-only effect; inactive means no such curve, though single readings can be large or run the other way. The list shows a part of the results.
Potency means the concentration at half of the fitted maximal effect.

This test can be described thus: Primary qHTS for Identification of Small Molecule Inhibitors of Huntingtin Promoter Activity. Further: nearly all actives have a fitted effect of over 50% in size. The conditions noted are these: HEK293 HTT promoter firefly luciferase reporter (activity 0% = vehicle and -100% = no light), 24 h; series mostly up to 57.5 µM; activity change, negative = inhibition: at the top concentration. The method, boiled down:
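Firefly luciferase signal from promoter-reporter HEK293 cells was scaled between vehicle (0%) and zero RLU (-100%). Compounds were tested at final concentrations of up to 57.5 uM over 24 h at 37 degrees C. PTC124 at 50 uM final served as control inhibitor.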
As for `CC(C)(C)OC(=O)N1CCC(c2c(C(=O)N3CCN(c4ccc(Cl)cc4)CC3)cnn2-c2ccc(F)cc2F)CC1`, the “activity change, negative = inhibition” value was inactive: -12.1%.
As for `COc1ccc(Cl)cc1NC(=O)c1cc2ccc3ccc(C)[nH]c3c2n1`, the “activity change, negative = inhibition” value was inactive: -2.31%.
Take `Cn1cc(S(=O)(=O)c2ccc(Cl)cc2)c(=O)c2cc(F)c(N3CCCC3)cc21`: the “activity change, negative = inhibition” value is inactive: -17.4%.
Still for that read-out and setting: under `Cn1c(=O)c2nc(SCC(=O)Nc3cc(Cl)cc(Cl)c3)n(C)c2n(C)c1=O` stands inactive: -20%; under `CCc1ccc(NC(=O)CSc2c(C)cnc3c2c(=O)n(C)c(=O)n3C)cc1`, inactive: -17%.
For the compound `Cc1nc2sccn2c(=O)c1S(=O)(=O)NCc1ccc(F)cc1`, the “activity change, negative = inhibition” value is inactive: -10.2%.
On the same count and under the same terms, the value for `Cc1ccc(Cn2c(CNS(=O)(=O)c3ccc(C(C)(C)C)cc3)nc3cccnc32)cc1` was inactive: -29.1%; that for `O=C(c1cc(-c2ccc(Cl)cc2)on1)N(Cc1cccc(F)c1)Cc1ccco1` was inactive: -33.7%.
Turning to `COc1ccc(CNc2nc(-c3ccco3)nn2C(=O)c2ccccc2Cl)cc1`, the “activity change, negative = inhibition” value was inactive: 58.3%.
On to `COc1cc(NC(=O)c2cc(-c3cccs3)on2)c(OC)cc1Cl`, for which the activity change, negative = inhibition is inactive: -3.84% [at 11.5 µM].
As for `COc1ccc(NC(=O)C(=O)NCCc2ccc(OC)c(OC)c2)c(OC)c1`, the “activity change, negative = inhibition” value was inactive: -4.87%.
`COc1ccccc1CNc1nc2ccccc2c2nc(-c3cccnc3)nn12`: the “activity change, negative = inhibition” value is inactive: 0.606%.
Consider `O=C(COc1ccccc1Cl)OCc1cc(=O)n2nc(C3CC3)sc2n1`, for which the “activity change, negative = inhibition” value is inactive: -16.8%.
On the same count and under the same terms, under `COCCCNC(=O)c1cnn(-c2ccccc2Cl)c1C1CCN(C(=O)OC(C)(C)C)CC1` stands inactive: 0.121%; under `COc1ccc(CCNC(=O)c2cccc(-n3c(C)nc4cccnc43)c2)cc1OC`, inactive: -9.9%.
As for `COc1ccc(-c2cc3nc(-c4ccc(Br)cc4)cc(C(F)(F)F)n3n2)cc1`, the “activity change, negative = inhibition” value is inactive: -18.1%.
Take `COC(=O)c1ccc(NC(=O)CSc2cn(CC(=O)N3CCCCCC3)c3ccccc23)cc1`: the “activity change, negative = inhibition” value is inactive: -28%.
For the compound `COc1ccc(NC(=O)Cn2c(C)cc3ccccc3c2=O)c(OC)c1`, the “activity change, negative = inhibition” value was inactive: 7.35%.
With `Cc1nn(-c2nc(-c3ccc(F)cc3)cc(C(F)(F)F)n2)c(C)c1Br`, the “activity change, negative = inhibition” value was inactive: -20.1%.
Take `COC(=O)c1cc(C)nc2c1c(=O)nc(SCc1cccc(C)c1)n2C1CC1`: the “activity change, negative = inhibition” value is inactive: -8.48%.
For the compound `CCOc1ccc(CNC(=O)CCS(=O)(=O)c2cc3c(cc2Cl)NC(=O)CO3)cc1OC`, the “activity change, negative = inhibition” value was inactive: 9.3%.
With `CCOC(=O)c1ccccc1NC(=O)Nc1cc2c(cc1N1CCCCC1)n(C)c(=O)n2C`, the “activity change, negative = inhibition” value was inactive: -6.16%.
As to `O=C(Nc1ccc(N2CCC(c3ccccc3)C2)c(C(=O)O)c1)c1ccc(Cl)cc1` (stereo unspecified), the “activity change, negative = inhibition” value was inactive: -21.8%.
In the case of `COc1cccc(NC(=O)CCc2c(C)nc3c4cccnc4nn3c2C)c1`, the “activity change, negative = inhibition” value is inactive: -20.7%.
For `CCOc1ccc(Oc2nc(NCC(C)C)nc(NC(C)(C)C)n2)nn1`, the “activity change, negative = inhibition” value was inactive: 7.22%.
On to `COc1ccccc1OCC(=O)N(Cc1ccc(Cl)cc1)CC1CCCO1` (stereo unspecified), for which the “activity change, negative = inhibition” value was inactive: -11.4%.
Turning to `CCc1cccc(CC)c1NC(=O)c1ccc2c(c1)CCN2S(=O)(=O)c1ccccc1`, the “activity change, negative = inhibition” value is inactive: -25.7%.
As for `Cc1cccc(NC(=O)CN2C(=O)c3cccnc3Oc3ccc(Cl)cc32)c1C`, the “activity change, negative = inhibition” value is inactive: -9.19%.
As to `CSc1ccc(CCNC(=O)CCCn2nc(C)c3sc4ccccc4c3c2=O)cc1`, the “activity change, negative = inhibition” value was inactive: 10.8%.
On to `COCCCNc1ncnc2onc(-c3ccc(F)cc3)c12`, for which the “activity change, negative = inhibition” value is inactive: -16.5%.
On to `COCCCNC(=O)CN1C(=O)COc2ccc(S(=O)(=O)N3CCCC3)cc21`, for which the “activity change, negative = inhibition” value is inactive: -7.68%.
Consider `Cc1n[nH]c(C)c1S(=O)(=O)N(CC(=O)NC(C)c1ccccc1)c1ccc(C(C)C)cc1` (stereo unspecified), for which the “activity change, negative = inhibition” value is inactive: -18%.
On to `COc1cccc(NC(=O)Cn2cnc3c(nc4n3CCCCC4)c2=O)c1`, for which the activity change, negative = inhibition was inactive: -11.5% [at 11.5 µM].
`CS(=O)(=O)N1CCc2cc(C(=O)NCCc3ccccc3)ccc21`: the “activity change, negative = inhibition” value was inactive: 47.4%.
Take `Cc1ccc(-c2cc(C(=O)N3CCN(S(=O)(=O)c4ccc(Br)cc4)CC3)[nH]n2)cc1C`: the “activity change, negative = inhibition” value is inactive: 6.69%.
Take `CCC(=O)NCC(c1ccc2c(c1)OCO2)N1CCN(c2ccccc2)CC1` (stereo unspecified): the “activity change, negative = inhibition” value was inactive: -9.23%.
With `Cc1nc2ccccc2c(=O)n1-c1ccc(NC(=O)c2ccc([N+](=O)[O-])cc2)cc1`, the “activity change, negative = inhibition” value is inactive: -15.8%.
Turning to `COc1ccc(N2CCN(C(=O)CCc3c(C)nc4cc(-c5ccc(Cl)cc5)nn4c3C)CC2)cc1`, the Potency was active: 316 nM.
For the compound `COc1ccc(-c2[nH]nc3nc(-c4cc(OC)c(OC)c(OC)c4)cc(C(=O)O)c23)cc1`, the “activity change, negative = inhibition” value is inactive: 0.506%.
Turning to `Cc1ccccc1CNC(=O)C(=O)NCC(c1ccco1)S(=O)(=O)c1ccccc1` (stereo unspecified), the “activity change, negative = inhibition” value was inactive: -14.7%.
For the compound `COc1ccc(C(=O)Nc2nnc(S(=O)(=O)N(C)c3ccc(Cl)cc3)s2)cc1OC`, the “activity change, negative = inhibition” value is inactive: -15%.
As to `Cc1ccc(CCNC(=O)c2cn(C)c3ccc(S(=O)(=O)N4CCCCC4)cc3c2=O)cc1`, the “activity change, negative = inhibition” value was inactive: -4.21%.
In the case of `CCCS(=O)(=O)N1CCCC(C(=O)NCCCOC)C1` (stereo unspecified), the “activity change, negative = inhibition” value was inactive: -12.1%.
Regarding `CCc1cccc(NC(=O)CCS(=O)(=O)c2cc(Br)cc3c2N(C(C)=O)CC3)c1`, the “activity change, negative = inhibition” value was inactive: -1.43%.
Regarding `O=C(NCc1ccccc1Cl)c1cc2ccccc2o1`, the “activity change, negative = inhibition” value is inactive: 4.54%.
The same measure, in the same setting: the value for `O=C(CSc1nc2ccccc2nc1Cc1ccccc1)N1CCCCC1` was inactive: -24.9%; that for `COc1cc(-c2nc3ncccn3c2Nc2ccc(C)cc2C)ccc1O` was inactive: 6.49%; that for `CCOc1ccccc1NC(=O)N1CCN(Cc2nc3ccc(C)cc3o2)CC1` was inactive: -17.9%.
As to `CCCCOc1cccc(C(=O)Nc2ccc3oc(-c4cccnc4)nc3c2)c1`, the “activity change, negative = inhibition” value was inactive: -4.97%.
As to `Cc1cc(C)cc(-n2c(SCC(N)=O)nc3c(oc4ccccc43)c2=O)c1`, the “activity change, negative = inhibition” value was inactive: -20.3%.
With `COc1cccc(Nc2c3c(nc4nncn24)CCC3)c1`, the “activity change, negative = inhibition” value is inactive: -16.8%.
Still for that read-out and setting: under `CCOc1ccccc1NC(=O)Cn1cnc2sc(C)c(S(=O)(=O)N3CCC(C)CC3)c2c1=O` stands inactive: -12.2%; under `Cc1ccc(-n2ncc(C(=O)Nc3ccc4c(c3)OCO4)c2C2CCN(C(=O)OC(C)(C)C)CC2)cc1`, inactive: -9.25%.
`Cc1ccnc(NS(=O)(=O)c2cc(-c3cc(C)no3)ccc2C)c1`: the “activity change, negative = inhibition” value was inactive: -20.8%.
`CCc1ccc(N(CC)C(=O)Cn2c(=O)oc3ccccc32)cc1`: the “activity change, negative = inhibition” value was inactive: -20.4%.
Turning to `Cc1nn(S(=O)(=O)c2ccc(F)cc2)c(C)c1S(=O)(=O)N1CCC(C)CC1`, the “activity change, negative = inhibition” value was inactive: -8.31%.
The same measure, in the same setting: the value for `COc1cccc2cc(C(=O)NCCc3c(C)[nH]c4ccc(Br)cc34)c(=O)oc12` was inactive: -11%; that for `CCOC(=O)c1cc2c(=O)n3ccccc3nc2n(CC(C)C)c1=NC(=O)c1cc2ccccc2o1` was inactive: -15.3%; that for `Cc1ccc(S(=O)(=O)c2cn(Cc3ccc(F)cc3)c3cc(F)c(F)cc3c2=O)cc1` was inactive: -12.5%.
The same measure, in the same setting: the value for `CCOCCn1ccc2c(OCC(=O)Nc3ccc(OC(F)(F)F)cc3)cccc2c1=O` was inactive: 0%; that for `CC(=O)c1cccc(NC(=O)CCS(=O)(=O)c2ccc(Br)s2)c1` was inactive: -5.09%.

The values above are taken from PubChem BioAssay AID1508623 (National Center for Advancing Translational Sciences (NCATS), 2021).
